Sequences and labels used below:
T1: RBFOX1 RRM (Homo sapiens, UniProt Q9NWB1 109-208)
T1 sequence: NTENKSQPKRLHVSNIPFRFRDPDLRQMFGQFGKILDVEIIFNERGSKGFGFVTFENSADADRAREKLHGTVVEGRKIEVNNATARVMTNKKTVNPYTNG

B1: GCAGCAG (DNA:RNA)
RNA: GGGAGACCGGAAUUCAGAUUGUCCGCAGCAGUUAAAUCCCGUCGUAGCCACCA
DNA 1: CAATCTGAATTCCGGTCTCCC
DNA 2: TGGTGGCTACGACGGGATT
B2: GCGACAU (DNA:RNA)
RNA: B1 RNA with A27G, G28A, G31U
DNA 1: CAATCTGAATTCCGGTCTCCC
DNA 2: TGGTGGCTACGACGGGATT
B3: CCAUCUG (DNA:RNA)
RNA: B1 RNA with G25C, G28U, A30U
DNA 1: CAATCTGAATTCCGGTCTCCC
DNA 2: TGGTGGCTACGACGGGATT
B4: AACAUCU (DNA:RNA)
RNA: GGGAGACCGGAAUUCAGAUUGUCCAACAUCUUUAAAUCCCGUCGUAGCCACCA
DNA 1: CAATCTGAATTCCGGTCTCCC
DNA 2: TGGTGGCTACGACGGGATT
B5: GGGGUUG (DNA:RNA)
RNA: B1 RNA with C26G, A27G, C29U, A30U
DNA 1: CAATCTGAATTCCGGTCTCCC
DNA 2: TGGTGGCTACGACGGGATT
B6: CCGCCCA (DNA:RNA)
RNA: B1 RNA with G25C, A27G, G28C, A30C, G31A
DNA 1: CAATCTGAATTCCGGTCTCCC
DNA 2: TGGTGGCTACGACGGGATT
B7: UAGUGCA (DNA:RNA)
RNA: B4 RNA with A25U, C27G, A28U, U29G, U31A
DNA 1: CAATCTGAATTCCGGTCTCCC
DNA 2: TGGTGGCTACGACGGGATT
B8: GCCUCCG (DNA:RNA)
RNA: B1 RNA with A27C, G28U, A30C
DNA 1: CAATCTGAATTCCGGTCTCCC
DNA 2: TGGTGGCTACGACGGGATT
B9: CUUAUAC (DNA:RNA)
RNA: B4 RNA with A25C, A26U, C27U, C30A, U31C
DNA 1: CAATCTGAATTCCGGTCTCCC
DNA 2: TGGTGGCTACGACGGGATT
B10: CUAGCUG (DNA:RNA)
RNA: B1 RNA with G25C, C26U, A30U
DNA 1: CAATCTGAATTCCGGTCTCCC
DNA 2: TGGTGGCTACGACGGGATT
B11: GAAACCC (DNA:RNA)
RNA: B4 RNA with A25G, C27A, U29C, U31C
DNA 1: CAATCTGAATTCCGGTCTCCC
DNA 2: TGGTGGCTACGACGGGATT
B12: AUAAAUG (DNA:RNA)
RNA: B4 RNA with A26U, C27A, U29A, C30U, U31G
DNA 1: CAATCTGAATTCCGGTCTCCC
DNA 2: TGGTGGCTACGACGGGATT
B13: CUACCAC (DNA:RNA)
RNA: B1 RNA with G25C, C26U, G28C, G31C
DNA 1: CAATCTGAATTCCGGTCTCCC
DNA 2: TGGTGGCTACGACGGGATT
B14: UAAUUGU (DNA:RNA)
RNA: B4 RNA with A25U, C27A, A28U, C30G
DNA 1: CAATCTGAATTCCGGTCTCCC
DNA 2: TGGTGGCTACGACGGGATT
B15: GUAUUGG (DNA:RNA)
RNA: B1 RNA with C26U, G28U, C29U, A30G
DNA 1: CAATCTGAATTCCGGTCTCCC
DNA 2: TGGTGGCTACGACGGGATT
B16: UCGACCU (DNA:RNA)
RNA: B4 RNA with A25U, A26C, C27G, U29C
DNA 1: CAATCTGAATTCCGGTCTCCC
DNA 2: TGGTGGCTACGACGGGATT
B17: CCGUUAG (DNA:RNA)
RNA: B1 RNA with G25C, A27G, G28U, C29U
DNA 1: CAATCTGAATTCCGGTCTCCC
DNA 2: TGGTGGCTACGACGGGATT
B18: UAGUGCC (DNA:RNA)
RNA: B4 RNA with A25U, C27G, A28U, U29G, U31C
DNA 1: CAATCTGAATTCCGGTCTCCC
DNA 2: TGGTGGCTACGACGGGATT
B19: UCAGGAG (DNA:RNA)
RNA: B1 RNA with G25U, C29G
DNA 1: CAATCTGAATTCCGGTCTCCC
DNA 2: TGGTGGCTACGACGGGATT
B20: AAUAUCG (DNA:RNA)
RNA: B4 RNA with C27U, U31G
DNA 1: CAATCTGAATTCCGGTCTCCC
DNA 2: TGGTGGCTACGACGGGATT
B21: GUCUCGA (DNA:RNA)
RNA: B1 RNA with C26U, A27C, G28U, A30G, G31A
DNA 1: CAATCTGAATTCCGGTCTCCC
DNA 2: TGGTGGCTACGACGGGATT
B22: UACAGGA (DNA:RNA)
RNA: B4 RNA with A25U, U29G, C30G, U31A
DNA 1: CAATCTGAATTCCGGTCTCCC
DNA 2: TGGTGGCTACGACGGGATT
B23: AACUACU (DNA:RNA)
RNA: B4 RNA with A28U, U29A
DNA 1: CAATCTGAATTCCGGTCTCCC
DNA 2: TGGTGGCTACGACGGGATT
B24: AUUCAAC (DNA:RNA)
RNA: B4 RNA with A26U, C27U, A28C, U29A, C30A, U31C
DNA 1: CAATCTGAATTCCGGTCTCCC
DNA 2: TGGTGGCTACGACGGGATT
B25: CUGGCAA (DNA:RNA)
RNA: B1 RNA with G25C, C26U, A27G, G31A
DNA 1: CAATCTGAATTCCGGTCTCCC
DNA 2: TGGTGGCTACGACGGGATT
B26: ACGAGGG (DNA:RNA)
RNA: B4 RNA with A26C, C27G, U29G, C30G, U31G
DNA 1: CAATCTGAATTCCGGTCTCCC
DNA 2: TGGTGGCTACGACGGGATT
B27: UCCGCGC (DNA:RNA)
RNA: B1 RNA with G25U, A27C, A30G, G31C
DNA 1: CAATCTGAATTCCGGTCTCCC
DNA 2: TGGTGGCTACGACGGGATT
B28: CGAGUUA (DNA:RNA)
RNA: B1 RNA with G25C, C26G, C29U, A30U, G31A
DNA 1: CAATCTGAATTCCGGTCTCCC
DNA 2: TGGTGGCTACGACGGGATT
B29: GACCGCC (DNA:RNA)
RNA: B4 RNA with A25G, A28C, U29G, U31C
DNA 1: CAATCTGAATTCCGGTCTCCC
DNA 2: TGGTGGCTACGACGGGATT
B30: UUAUGGG (DNA:RNA)
RNA: B1 RNA with G25U, C26U, G28U, C29G, A30G
DNA 1: CAATCTGAATTCCGGTCTCCC
DNA 2: TGGTGGCTACGACGGGATT
B31: UCUAUUC (DNA:RNA)
RNA: B4 RNA with A25U, A26C, C27U, C30U, U31C
DNA 1: CAATCTGAATTCCGGTCTCCC
DNA 2: TGGTGGCTACGACGGGATT

Where a chain is given by its changes, count along the chain named. This is one part of the list.

The assay addresses T1, RBFOX1 RRM. The experiment in a line: EMSA; HiTS-Eq, 1 nM pool, 10 min; buffer printed only for the single-RNA assays: 10 mM Tris pH 7.5, 150 mM NaCl, 3.4 mM EDTA, 0.001% NP-40, 30 C. Conditions: tags: His6 N-terminal (pET28a); label: 5' 32P. The procedure, abridged: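 Purified wild-type or mutant RbFox RRM at increasing concentrations was equilibrated with 1 nM of 5′-radiolabelled RNA carrying 7 randomized nucleotides for 10 min in 50 µL. Unbound RNA was separated by 8% native PAGE and sequenced. Relative association constants came from read-count changes of each RNA species compared with the control reaction, normalised to the cognate motif.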
A general note: Mobility shift assays separate free from complexed probe on a gel.
For the molecule B1, the binding signal is 0.011 KA relative to UGCAUGU.

Take B2: the binding signal is 0.00923 KA relative to UGCAUGU.

For the molecule B3, the binding signal was 0.00387 KA relative to UGCAUGU.

Turning to B4, the binding signal is 0.00023 KA relative to UGCAUGU.

On to B5, for which the binding signal is 0.0899 KA relative to UGCAUGU.

As for B6, the binding signal was 0.00911 KA relative to UGCAUGU.

As to B7, the binding signal is 0.018 KA relative to UGCAUGU.

For the molecule B8, the binding signal is 0.00754 KA relative to UGCAUGU.

As to B9, the binding signal is 0.00089 KA relative to UGCAUGU.

Consider B10, for which the binding signal was 0.0136 KA relative to UGCAUGU.

In the case of B11, the binding signal is 0.00221 KA relative to UGCAUGU.

B12: the binding signal is 0.00485 KA relative to UGCAUGU.

With B13, the binding signal was 0.00189 KA relative to UGCAUGU.

Consider B14, for which the binding signal was 0.0153 KA relative to UGCAUGU.

Turning to B15, the binding signal is 0.0141 KA relative to UGCAUGU.

With B16, the binding signal is 0.00995 KA relative to UGCAUGU.

Turning to B17, the binding signal is 0.0111 KA relative to UGCAUGU.

Take B18: the binding signal is 0.0169 KA relative to UGCAUGU.

In the case of B19, the binding signal was 0.00682 KA relative to UGCAUGU.

For B20, the binding signal was 0.0033 KA relative to UGCAUGU.

On to B21, for which the binding signal is 0.0166 KA relative to UGCAUGU.

For the molecule B22, the binding signal is 0.0027 KA relative to UGCAUGU.

As for B23, the binding signal was 0.000905 KA relative to UGCAUGU.

As to B24, the binding signal is 0.00205 KA relative to UGCAUGU.

For the molecule B25, the binding signal was 0.013 KA relative to UGCAUGU.

As to B26, the binding signal was 0.00925 KA relative to UGCAUGU.

B27: the binding signal is 0.0109 KA relative to UGCAUGU.

In the case of B28, the binding signal is 0.00739 KA relative to UGCAUGU.

Regarding B29, the binding signal was 0.0115 KA relative to UGCAUGU.

For the molecule B30, the binding signal is 0.00208 KA relative to UGCAUGU.

For B31, the binding signal was 0.00485 KA relative to UGCAUGU.

The values above are taken from article PMC9911399, “Two distinct binding modes provide the RNA-binding protein RbFox with extraordinary sequence specificity”.
